# Values joined by “and” are separate entries in the source; they are usually repeats but may differ in a detail not shown here. Equal entries are not always repeated. The shares of active, inactive and inconclusive entries below differ from those in the screen. For some of these results: Where the call is inconclusive, the potency comes from a doubtful curve fit. Where a structure was tested more than once in an assay, its records may differ in their call. Active and inactive are the calls of the source. Unless noted, calls come from the whole dose curve; as a rule, active = well fitted curve in the direction sought with a large enough effect in the repeat runs; inconclusive = weak or mixed curves; inactive = no such curve, though single readings can be large; an effect the other way counts as inactive or inconclusive.
# Tests used:
# [1] = target: Progesterone receptor (Homo sapiens) (UniProt P06401); test: qHTS assay to identify small molecule agonists of the progesterone receptor (PR) signaling pathway (AID 1346784; calls by dose curve; note: nearly all actives have a fitted effect of over 30% in size; for activation: % is set by controls: 0 for no effect and ±100 for the full control effect); details: PR-UAS-bla HEK293T, beta-lactamase FRET ratio, 16 h
# Sequence of UniProt P06401 (P06401 whole entry, looked up): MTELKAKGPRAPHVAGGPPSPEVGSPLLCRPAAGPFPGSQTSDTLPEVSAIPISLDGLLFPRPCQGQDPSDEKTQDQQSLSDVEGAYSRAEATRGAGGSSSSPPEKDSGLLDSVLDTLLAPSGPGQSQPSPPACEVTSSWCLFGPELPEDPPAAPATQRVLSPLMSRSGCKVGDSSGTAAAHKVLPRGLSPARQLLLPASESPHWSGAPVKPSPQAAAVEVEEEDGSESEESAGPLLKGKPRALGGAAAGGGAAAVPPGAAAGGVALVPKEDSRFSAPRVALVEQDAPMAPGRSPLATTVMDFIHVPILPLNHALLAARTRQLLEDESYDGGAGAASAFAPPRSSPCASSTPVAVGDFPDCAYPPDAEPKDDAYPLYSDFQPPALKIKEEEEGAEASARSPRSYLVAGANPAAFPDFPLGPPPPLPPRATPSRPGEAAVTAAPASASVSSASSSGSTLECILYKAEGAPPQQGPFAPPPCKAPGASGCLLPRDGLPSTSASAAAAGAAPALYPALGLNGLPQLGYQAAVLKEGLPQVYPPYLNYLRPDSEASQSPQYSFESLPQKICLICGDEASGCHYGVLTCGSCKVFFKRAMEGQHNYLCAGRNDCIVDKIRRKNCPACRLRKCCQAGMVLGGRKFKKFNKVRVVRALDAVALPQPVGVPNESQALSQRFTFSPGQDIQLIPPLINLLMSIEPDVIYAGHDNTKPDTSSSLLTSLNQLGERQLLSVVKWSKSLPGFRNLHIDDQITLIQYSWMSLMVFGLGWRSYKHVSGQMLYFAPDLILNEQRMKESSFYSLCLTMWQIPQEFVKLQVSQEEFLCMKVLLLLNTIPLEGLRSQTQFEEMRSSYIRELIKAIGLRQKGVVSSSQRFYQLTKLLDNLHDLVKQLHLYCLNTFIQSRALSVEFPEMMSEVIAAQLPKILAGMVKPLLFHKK
# Procedure, shortened: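 Cells (PR-UAS-bla HEK 293T, GripTite) were plated in assay medium containing 2% charcoal-stripped FBS and incubated 6 hr. Test compounds in DMSO were added for 16 hr at 37C. FRET substrate was then loaded for 2 hr at room temperature before fluorescence reading.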
# [2] = target: Progesterone receptor (Homo sapiens) (UniProt P06401); test: qHTS assay to identify small molecule antagonists of the progesterone receptor (PR) signaling pathway (AID 1346795; active = well fitted inhibition curve with a large enough effect in the signal ratio in the repeat runs, not every such curve was filed as active; inconclusive = weak or mixed curves; the % refers to the signal ratio; for activity change, negative = inhibition: % is set by controls: 0 for no effect and ±100 for the full control effect); details: PR-UAS-bla HEK293T, beta-lactamase FRET ratio, 16 h
# Procedure, shortened: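 Antagonist mode: compounds tested against 1 nM (final) promegestone stimulation in HEK293T cells expressing PR-UAS-bla reporter, 16 hr at 37C, 5% CO2; beta-lactamase activity detected via B/G FRET substrate after 2 hr at room temperature.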
# [3] = qHTS assay to identify small molecule antagonists of the progesterone receptor (PR) signaling pathway - cell viability counter screen (AID 1346798); note: nearly all actives have a fitted effect of over 50% in size
# Procedure, shortened: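 Counter screen for cytotoxicity: viability of PR-UAS-bla HEK293T cells was measured with CellTiter-Glo luminescence following 16 hr compound exposure in the presence of R5020.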
# [4] = qHTS assay to identify small molecule antagonists of the TGF-beta/Smad signaling pathway - cell viability counter screen (AID 1346824); note: nearly all actives have a fitted effect of over 50% in size
# Procedure, shortened: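 Cytotoxicity counter-screen run in the same wells as the beta-lactamase Smad reporter read: CellTiter-Glo luminescence after 30 min at room temperature. HEK 293T SBE-bla cells had 5 hr compound exposure at 37 C with TGF-beta1 (0.25 ng/mL stock).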
# [5] = target: Thyrotropin-releasing hormone receptor (Homo sapiens) (UniProt P34981); test: qHTS assay to identify small molecule antagonists of the thyrotropin-releasing hormone receptor (TRHR) signaling pathway (AID 1346877; active = well fitted inhibition curve with a large enough effect in the repeat runs, not every such curve was filed as active; inconclusive = weak or mixed curves)
# Sequence of UniProt P34981 (P34981 whole entry, looked up): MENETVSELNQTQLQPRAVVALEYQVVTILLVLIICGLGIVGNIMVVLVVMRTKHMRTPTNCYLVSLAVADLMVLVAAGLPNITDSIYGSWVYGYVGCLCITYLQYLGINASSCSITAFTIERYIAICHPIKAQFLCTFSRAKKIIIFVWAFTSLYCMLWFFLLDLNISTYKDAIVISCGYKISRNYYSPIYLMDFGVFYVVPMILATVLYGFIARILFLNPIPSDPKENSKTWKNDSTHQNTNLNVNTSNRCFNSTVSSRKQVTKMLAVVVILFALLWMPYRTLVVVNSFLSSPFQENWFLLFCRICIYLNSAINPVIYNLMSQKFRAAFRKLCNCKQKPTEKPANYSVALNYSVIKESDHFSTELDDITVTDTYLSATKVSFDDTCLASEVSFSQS
# Procedure, shortened: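 TRHR-expressing HEK293 cells were seeded, cultured 18 h at 37 °C, then loaded with calcium dye for 2 h. Compounds were pre-incubated 5 min at room temperature before 1 nM TRH (final) was added, and kinetic fluorescence was recorded for 3 min.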
# [6] = Human pregnane X receptor (PXR) small molecule agonists, qHTS cell viability counter screen (AID 1346977); note: nearly all actives have a fitted effect of over 50% in size
# Procedure, shortened: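 Cytotoxicity counter screen run in the same wells as the PXR luciferase assay, using PXR-Luc HepG2 cells in charcoal-stripped serum medium. Viability: CellTiter-Fluor fluorescence after 24hr compound treatment.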
# [7] = qHTS assay to identify small molecule agonists of the progesterone receptor (PR) signaling pathway - cell viability counter screen (AID 1346799; calls by dose curve; note: nearly all actives have a fitted effect of over 45% in size)
# Procedure, shortened: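 Cells (PR-UAS-bla HEK293T) are plated at 3,000/well in 2% charcoal-stripped FBS medium, rested 6 hr, dosed and incubated 16 hr at 37C. CellTiter-Glo is then added and luminescence measured after 30 min at room temperature.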
# [8] = Caspase-3/7 induction in CHO-K1 cells by small molecules, qHTS cell viability counter screen (AID 1346979); note: nearly all actives have a fitted effect of over 35% in size
# Procedure, shortened: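 Cytotoxicity counter screen run in parallel with the caspase-3/7 assay: CHO-K1 cells, 16hr compound treatment at 37C, then CellTiter-Fluor for 1hr before fluorescence reading.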
# [9] = qHTS assay to identify small molecule agonists of the TGF-beta/Smad signaling pathway (AID 1346859; active = well fitted activation curve with a large enough effect in the signal ratio in the repeat runs, not every such curve was filed as active; inconclusive = weak or mixed curves; the % refers to the signal ratio; for activation: % is set by controls: 0 for no effect and ±100 for the full control effect); details: SBE-bla HEK293T, TGF-beta/Smad beta-lactamase reporter, 5 h; activation: at 76.8 µM (top of the series)
# Procedure, shortened: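 Reporter line: HEK 293T with stably integrated SBE-controlled beta-lactamase. Compound exposure lasts 5 hr at 37 C and 5% CO2; substrate loading follows for 2 hr at room temperature, with emission read at 460 and 530 nm.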
# [10] = qHTS assay to identify small molecule antagonists of the TGF-beta/Smad signaling pathway (AID 1346924; active = well fitted inhibition curve with a large enough effect in the signal ratio in the repeat runs, not every such curve was filed as active; inconclusive = weak or mixed curves; the % refers to the signal ratio); details: SBE-bla HEK293T, TGF-beta/Smad reporter, beta-lactamase ratio; activity, negative = inhibition: at 76.8 µM (top of the series) unless noted
# Procedure, shortened: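 SBE-bla HEK 293T cells were plated overnight, then received compound in DMSO plus TGF-beta1 (added as a 0.25 ng/mL solution) and were incubated 5 h at 37 C. Beta-lactamase reporter activity was read after 2 h at room temperature with LiveBLAzer B/G FRET substrate (ex 405, em 460/530 nm).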
# [11] = Caspase-3/7 induction in HepG2 cells by small molecules, qHTS assay (AID 1346978); note: nearly all actives have a fitted effect of over 15% in size
# Procedure, shortened: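 Caspase-3/7 induction was measured by Caspase-Glo 3/7 luminescence (30 min, room temperature) after a 17 hr compound exposure of wild-type HepG2 cells seeded at 2,000 per well and pre-incubated 5 hr.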
# [12] = Caspase-3/7 induction in CHO-K1 cells by small molecules, qHTS assay (AID 1346980); note: nearly all actives have a fitted effect of over 15% in size
# Procedure, shortened: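 Luminescent Caspase-Glo 3/7 read (30min, room temperature) quantified apoptosis induction. Cells were wild-type CHO-K1, treated with compound for 17hr at 37 C and 5% CO2.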
# [13] = activation: at 92.4 µM (top of the series) unless noted
# [14] = activity change, negative = inhibition: at 92.4 µM (top of the series) unless noted
# Potency is the fitted concentration of half-maximal effect; tags give direction and shape of the fitted curve or compound fluorescence and quenching.
smiles,measurement,setting,value
O=C1c2ccccc2C(=O)N1SC(Cl)(Cl)Cl,activation,[1]; [13],inconclusive: -13.7%
same,activation,[1]; at 92.4 µM (top of the series),inactive: 7.92%
same,Potency,[2]; [14],"inconclusive: 68.6 µM [rising, single point]"
same,Potency,[3],"inconclusive: 77 µM [cytotoxic, single point]"
same,Potency,[4],"inconclusive: 21.6 µM [cytotoxic, partial curve, poor fit] and inconclusive: 4.9 µM [cytotoxic, full curve]"
same,Potency,[5],"active: 33.3 µM and inconclusive: 26.9 µM [inhibitor, partial curve]"
same,Potency,[6],active: 39.8 µM and active: 17.2 µM
BrC(Br)Br,Potency,[1]; [13],active: 7.7 µM
same,Potency,[2]; [14],inactive
same,Potency,[7],"inconclusive: 10.9 µM [rising, full curve]"
NC(=O)OCCCc1ccccc1,Potency,[1]; [13],inactive
O=C(O)CC[N+](=O)[O-],Potency,[2]; [14],inconclusive: 70.8 µM
same,Potency,[7],inactive
same,Potency,[8],"inconclusive: 79.4 µM [cytotoxic, single point] and inactive"
Cn1cc(C2=C(c3cn(C4CCN(Cc5ccccn5)CC4)c4ccccc34)C(=O)NC2=O)c2ccccc21,Potency,[2]; [14],"inconclusive: 5.31 µM [falling, full curve]"
same,Potency,[3],"inconclusive: 16.8 µM [rising, partial curve, poor fit]"
same,Potency,[7],"inconclusive: 2.66 µM [rising, full curve]"
same,Potency,[9],inconclusive: 8.49 µM
same,Potency,[6],"inconclusive: 8.41 µM [cytotoxic, partial curve]"
CCCSP(=O)(OCC)Oc1ccc(Br)cc1Cl (stereo not given),Potency,[2]; [14],active: 11.8 µM
same,Potency,[7],"inconclusive: 18.7 µM [rising, partial curve]"
same,"activity, negative = inhibition",[10],inconclusive: -19.5% [at 35.3 µM]
CCCCCCCCCCCCn1cc[n+](C)c1,"activity change, negative = inhibition",[2]; [14],inconclusive: 6.81%
same,Potency,[3],"inconclusive: 77.7 µM [cytotoxic, single point]"
same,Potency,[11],active: 43.6 µM
same,Potency,[12],"inconclusive: 68.6 µM [activator, single point] [middle of 5 runs]"
Nc1ccncc1,Potency,[2]; [14],inactive
same,Potency,[3],inactive
same,Potency,[7],"inconclusive: 33.5 µM [rising, single point]"
CCOC(=O)CC(=O)CCl,Potency,[2]; [14],inactive
same,Potency,[3],inactive
same,Potency,[8],"inconclusive: 68.6 µM [cytotoxic, single point]"
CN(C)[C@@H]1C(=O)C(C(N)=O)=C(O)[C@@]2(O)C(=O)C3=C(O)c4c(O)cccc4[C@@](C)(O)[C@H]3C[C@@H]12,Potency,[2]; [14],"inconclusive: 68.8 µM [rising, single point]"
same,Potency,[3],"inconclusive: 0.944 µM [cytotoxic, partial curve, poor fit]"
same,Potency,[10],"inconclusive: 43.8 µM [rising, partial curve]"
same,"activity, negative = inhibition",[10],inconclusive: 0.601% [at 35.3 µM]
Nc1nc(N)nc(NC2CC2)n1,"activity change, negative = inhibition",[2]; [14],inconclusive: -3.14% [at 42.5 µM]
same,"activity change, negative = inhibition",[2]; at 92.4 µM (top of the series),inactive: 6.72% and inactive: 0.726%
Cc1cccc(Cc2cnc[nH]2)c1C,"activity change, negative = inhibition",[2]; [14],inconclusive: -10.7% [at 42.5 µM]
same,"activity, negative = inhibition",[10],inconclusive: 1.74% [at 35.3 µM]
CC(C)COP(=O)(OCC(C)C)OCC(C)C,Potency,[2]; [14],inactive
same,Potency,[9],inactive
CCO/N=C(\CC)C1=C(O)CC(c2c(C)cc(C)cc2C)CC1=O (stereo not given),Potency,[2]; [14],inconclusive: 52.9 µM
same,Potency,[3],"inconclusive: 21.7 µM [rising, full curve, poor fit]"
same,Potency,[7],"inconclusive: 4.85 µM [cytotoxic, full curve, poor fit]"
same,"activity, negative = inhibition",[10],inconclusive: -1.79%
same,Potency,[8],inconclusive: 68.6 µM [cytotoxic]
C[C@H](CN1CCOCC1)C(C(=O)N1CCCC1)(c1ccccc1)c1ccccc1,"activity change, negative = inhibition",[2]; [14],inconclusive: -33%
same,Potency,[3],inactive
same,"activity, negative = inhibition",[10],inconclusive: -2.84%
BrCC(Br)(Br)Br,"activity change, negative = inhibition",[2]; [14],inconclusive: 6.98%
same,Potency,[7],inactive
same,Potency,[5],active: 15.7 µM
Nc1ccccc1-c1ccccc1,"activity change, negative = inhibition",[2]; [14],inconclusive: -30.3%
same,Potency,[7],active: 30.5 µM
